According to the supplement of paper PMC3334620:
Whole data set: some 33,000 sequences, median “E-score (-0.5 to 0.5)” near -0.043, cut for the highest 2% near 0.37. Some of the results follow.

target: T1, Upc2 (UniProt Q12151); assay: PBM E-score (8-mer binding enrichment) (E-score (-0.5 to 0.5)); higher = stronger / more preferred TF binding; most listed sequences are background and not binding sites; conditions: protein concentration: 200 nM; construct: GST-full length
T1 sequence: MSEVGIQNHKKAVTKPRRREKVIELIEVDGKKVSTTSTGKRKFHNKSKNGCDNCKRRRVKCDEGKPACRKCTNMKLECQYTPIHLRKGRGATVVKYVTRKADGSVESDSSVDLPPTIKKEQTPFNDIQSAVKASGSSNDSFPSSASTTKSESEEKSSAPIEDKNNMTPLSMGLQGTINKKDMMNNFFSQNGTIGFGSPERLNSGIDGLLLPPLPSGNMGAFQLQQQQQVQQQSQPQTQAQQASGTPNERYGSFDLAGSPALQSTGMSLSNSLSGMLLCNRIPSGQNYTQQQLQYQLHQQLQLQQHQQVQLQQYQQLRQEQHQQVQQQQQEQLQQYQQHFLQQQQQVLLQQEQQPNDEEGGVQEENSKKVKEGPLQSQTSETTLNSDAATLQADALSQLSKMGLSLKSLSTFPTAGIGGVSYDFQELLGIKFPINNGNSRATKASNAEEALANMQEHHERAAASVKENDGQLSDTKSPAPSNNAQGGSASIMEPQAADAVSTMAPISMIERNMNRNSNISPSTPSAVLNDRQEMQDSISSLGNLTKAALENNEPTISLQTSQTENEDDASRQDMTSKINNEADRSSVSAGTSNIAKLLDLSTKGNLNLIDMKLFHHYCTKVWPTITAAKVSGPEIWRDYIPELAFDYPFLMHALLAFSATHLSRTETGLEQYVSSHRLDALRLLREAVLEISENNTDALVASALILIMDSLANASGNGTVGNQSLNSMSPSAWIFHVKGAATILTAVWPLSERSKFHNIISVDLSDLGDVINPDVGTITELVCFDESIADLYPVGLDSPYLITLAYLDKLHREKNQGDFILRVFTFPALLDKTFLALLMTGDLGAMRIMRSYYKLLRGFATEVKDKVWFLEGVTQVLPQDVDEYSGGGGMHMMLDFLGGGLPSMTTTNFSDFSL
Method in brief: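 For each ungapped eight-base word taken together with its reverse complement, the Universal PBM Analysis Suite assigned an E-score. Binding data came from GST-tagged yeast transcription factors, applied at about 100-200 nM, on universal all-10-mer Agilent arrays made double-stranded by primer extension. Fluorescent anti-GST marked bound protein, and scans were normalised with masliner.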

| Sequence | PBM E-score |
| --- | --- |
| ACTGGAAA | -0.0688 |
| GGCCTGAC | -0.236 |
| ACATTAGG | -0.188 |
| AGTGCTTG | 0.035 |
| CGAATGTC | 0.0431 |
| ATTTGCCG | 0.154 |
| CTCTCCTA | 0.0887 |
| AACATACG | 0.39 |
| AATGCCCG | 0.102 |
| AAGCACCA | -0.0736 |
| ACCAATAG | -0.36 |
| CCTCTGCC | -0.364 |
| GGACGCGA | -0.0406 |
| AGCTGTAT | -0.0312 |
| ACCTTACC | -0.0775 |
| TAGCAACA | 0.143 |
| CCGCTAGC | -0.11 |
| CGAGTTTC | 0.13 |
| AGTGGTTG | -0.0996 |
| ACGGCGTG | 0.169 |
| GAAGGACC | -0.276 |
| GAATAGCC | -0.235 |
| AACAGCGA | -0.0446 |
| ATGAACAA | -0.0285 |
| GAGGCTAC | -0.0974 |

| Sequence | PBM E-score |
| --- | --- |
| AATAGGCA | -0.103 |
| AAAGGTCG | 0.026 |
| CTTACGTC | 0.071 |
| TCATTAAA | 0.0186 |
| TCTTAAAA | 0.0224 |
| CTTAGTAA | -0.0811 |
| GTTATGGA | -0.044 |
| ACTGTAGG | -0.117 |
| ACGAAGGA | 0.379 |
| ACTCTACA | -0.123 |
| AGCACGCT | -0.248 |
| CACTCCGA | -0.262 |
| TCCATGCA | -0.139 |
| CTCTCTGC | -0.00538 |
| ACCCACGT | 0.0198 |
| AAACGGTA | 0.367 |
| ATCGTTGA | 0.23 |
| AGCATTAG | -0.26 |
| ATCGTCAA | 0.0601 |
| CACCTTAG | -0.244 |
| ACGGACTC | 0.0345 |
| GCAACCCC | -0.238 |
| ACTGAGAA | 0.0418 |
| ATGACGAG | 0.0327 |
| ATAAATGG | -0.11 |

| Sequence | PBM E-score |
| --- | --- |
| CGGGATTA | -0.0694 |
| ACATTTAT | -0.0104 |
| GCTCTTTA | 0.0811 |
| AGTAAATC | -0.188 |
| GGATAAGA | 0.0378 |
| AACACGCC | 0.0131 |
| GAAATGTC | -0.0124 |
| AAGATTGA | -0.156 |
| GAATAGTA | 0.042 |
| CGTATCCA | 0.314 |
| CTAAGAAG | -0.0917 |
| CAAACCCA | 0.0481 |
| GAGCGACC | 0.217 |
| CACTCCCG | -0.155 |
| CGGACAAG | 0.0883 |
| ATCAAAGG | -0.273 |
| ATGAGACC | -0.15 |
| CAAGGGCA | -0.263 |
| ACGCCATC | -0.0963 |
| CCACCGAA | -0.00574 |
| ATTCATGA | -0.129 |
| AATTATCC | 0.117 |
| ACATGGTA | 0.0707 |
| TACATTAA | 0.186 |
| AGATTTAG | -0.0164 |

| Sequence | PBM E-score |
| --- | --- |
| CTCTTGTC | 0.00178 |
| ATGGCCAA | -0.145 |
| GTGTAATA | -0.00421 |
| GCGGGCCA | -0.0555 |
| CCATTATA | 0.0163 |
| ATGGTTTA | 0.0958 |
| CTCGTTGC | 0.356 |
| TACTGGGA | -0.0123 |
| TGTGTTAA | 0.0703 |
| AGCGAGGG | 0.245 |
| CGAAAGAA | 0.0719 |
| AGTGCGAC | 0.00954 |
| ACCCGAGG | 0.135 |
| CGTCTTGA | -0.0191 |
| AACAGAAA | -0.0922 |
| ACGATGGC | 0.229 |
| GTACAACA | 0.245 |
| GTACACAA | 0.192 |
| GCAGGAAC | 0.0847 |
| CTATGACA | -0.213 |
| ATACATGC | 0.169 |
| CGCGTTCA | 0.242 |
| CATGCCGG | 0.0173 |
| TAGCGACA | 0.139 |
| CACCAGAG | -0.121 |

| Sequence | PBM E-score |
| --- | --- |
| AGTTTTAG | -0.0963 |
| GTTACTTA | -0.00158 |
| GCGCCCGA | 0.0653 |
| AAGACGCA | -0.185 |
| AGGAAGAC | -0.255 |
| ACACGATG | 0.166 |
| GGTATAAC | 0.135 |
| ATCGGCGC | -0.0516 |
| ACGCCTCA | -0.151 |
| GCATTAAC | 0.125 |
| AAATAAGG | -0.00115 |
| AGCTCCAC | -0.221 |
| GTGCTTAA | -0.059 |
| CCAGAAGG | -0.179 |
| ACATTTTC | -0.0382 |
| GACCTCCC | -0.187 |
| TAGGATAA | 0.106 |
| CGCTAACC | 0.143 |
| ATCGTCAC | -0.0261 |
| TCGGGGCA | -0.109 |
| TCATCGGA | -0.14 |
| ACCTAATA | 0.196 |
| GGACATGA | -0.069 |
| ATCCTAAA | 0.111 |
| ACAACTAA | 0.0963 |

| Sequence | PBM E-score |
| --- | --- |
| ACTGACAA | -0.102 |
| GCAAGTCA | -0.0503 |
| AATTCAAA | 0.147 |
| ACCAAGGG | -0.0639 |
| GGGTGTAA | 0.0736 |
| GGTCGCGA | 0.174 |
| AGGGTGCC | -0.267 |
| ATAGTCAA | 0.0265 |
| GTGACATA | -0.168 |
| CTCCAGAG | -0.263 |
| CCTCCTAG | -0.31 |
| AGGACTGG | -0.275 |
| CCACAGCC | -0.144 |
| CCCAGTCC | -0.189 |
| CCCACTGA | -0.225 |
| CACAAAGG | -0.0824 |
| AGCAGACA | -0.213 |
| ACGGACAT | 0.185 |
| GGACGCAC | -0.182 |
| GTAGAATA | 0.0114 |
| TCCACGCA | 0.0386 |
| ACGTGACG | -0.059 |
| CTAGCAAC | 0.0763 |
| CACGGAAA | 0.00494 |
| ATCACAAT | 0.0131 |

| Sequence | PBM E-score |
| --- | --- |
| TAGATGGA | -0.0969 |
| GAGTCCGC | -0.28 |
| AAGCCAGA | -0.2 |
| AACCTAAT | -0.0308 |
| ACTACCGA | -0.0594 |
| ATTCCGCG | -0.07 |
| AATATGAA | -0.16 |
| CTGCCTGA | -0.158 |
| CAGCTCGG | 0.117 |
| ACACGAAT | 0.258 |
| GTATCGGA | 0.229 |
| GCTACTTA | -0.0738 |
| ACTAACGG | -0.0804 |
| ATGGCGTA | 0.22 |
| GATAACAA | -0.134 |
| GAAGACTA | -0.0458 |
| GATGGCCC | -0.255 |
| ACCGACCT | 0.105 |
| CTCCACGC | -0.159 |
| CCCTAGTA | -0.0085 |
| CATGGTGA | -0.0982 |
| GCGTCCCC | -0.386 |
